# Reference: the supplement of paper PMC12217912
# The other results are listed elsewhere or left out. Sequences were assembled here from the parent chain. Inactive controls read about 0.05.
# B1: TEV protease; numbered along this chain (parent)
# chain: MGESLFKGPRDYNPISSSICHLTNESDGHTTSLYGIGFGPFIITNKHLFRRNNGTLVVQSLHGVFKVKDTTTLQQHLVDGRDMIIIRMPKDFPPFPQKLKFREPQREERICLVTTNFQTKSMSSMVSDTSCTFPSGDGIFWKHWIQTKDGQCGSPLVSTRDGFIVGIHSASNFTNTNNYFTSVPKNFMELLTNQEAQQWVSGWRLNADSVLWGGHKVFMVKPEEPFQPVKEATQL
# Variants of: B1
# Assay: raw area under fraction-flipped curve 0-4 h after induction (AUC4h, not background-subtracted), DNA-recorder readout of cleavage of the substrate (dimensionless); higher = more cleavage of the substrate by the protease variant
# Details: temperature: 34 °C; time window: 0-4 h after rhamnose induction
# Procedure: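 In vivo DNA recorder in E. coli TOP10(DE3) ΔrhaA at 34 °C. Each TEVp single-site mutant (parent TEVp 0) is paired with a single-site variant of the 7-mer TEVs (canonical ENLYFQ|S). The substrate sits between flexible linkers in a Bxb1-sfGFP-TEVs-SsrA fusion, so cleavage stabilises Bxb1 and speeds flipping of a recombination array, read by NGS. The value is the raw area under the fraction-flipped curve over 0-4 h after rhamnose induction (AUC4h), with ≥20 reads per time point. It is not background-subtracted; inactive controls average about 0.047.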
# 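Also: Bxb1 expression induced with 0.2% (w/v) L-rhamnose at OD600 near 0.5, cultures sampled hourly, flipped fraction per protease–substrate barcode pair counted by paired-end Illumina sequencing.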
Variant,area with substrate ENLYAQS,area with substrate ENLYCQS,area with substrate ENLYEQS,area with substrate ENLYGQS,area with substrate ENLYHQS,area with substrate ENLYMQS,area with substrate ENLYNQS,area with substrate ENLYPQS,area with substrate ENLYTQS,area with substrate ENLYVQS,area with substrate ENLYDQS,area with substrate ENLYIQS,area with substrate ENLYKQS,area with substrate ENLYQQS,area with substrate ENLYRQS,area with substrate ENLYSQS,area with substrate ENLYWQS,area with substrate ENLYYQS,area with substrate ENLYLQS
MGESLFKGPRDYNPISSSICHLTNESDGHTTSLYGIGFGPFIITNKHLFRRNNGTLVVQSLHGVFKVKDTTTLQQHLVDGRDMIIIRMPKDFPPFPQKLKFREPQREERICLVTTNFQTKSMSSMVSDTSCTFPSGDGIFWKHWIQTKDGQCGSPLVSTRDGFIVGIHSASNFTNTNNYFTSVPKNFMELLTNQEAQQWVSGWRLNADSVLWGGHKVFMVKPEEPFQPHKEATQL [V229H],0.072,0.111,0.0427,0.0357,0.0478,0.101,0.0896,0.0771,0.0759,0.102,,,,,,,,,
MGESLFKGPRDYNPISSSICHLTNESDGHTTSLYGIGFGPFIITNKHLFRRNNGTLVVQSLHGVFKVKDTTTLQQHLVDGRDMIIIRMPKDFPPFPQKLKFREPQREERICLVTTNFQTKSMSSMVSDTSCTFPSGDGIFWKHWIQTKDGQCGSPLVSTRDGFIVGIHSASNFTNTNNYFTSVPKNFMELLTNQEAQQWVSGWRLNADSVLWGGHKVFMVNPEEPFQPVKEATQL [K221N],0.0929,0.0665,0.0615,0.063,0.0561,0.0914,0.0449,0.065,,0.117,0.0578,0.104,0.0464,0.0462,0.0653,0.0382,0.0524,,
MGESLFKGPRDYNPISSSICHLTNESDGHTTSLYGIGFGPFIITNKHLFRRNNGTLVVQSLHGVFKVKDTTTLQQHLVDGRDMIIIRMPKDFPPFPQKLKFREPQREERICLVTTNFQTKSMSSMVSDTSCTFPSGDGIFWKHWIQTKDGQCGSPLVSTRDGFIVGIHSASNFTNTNNYFTSVPKNFMELLTNQEAQQWVSGWRLNADSVLWGGHKVFMVTPEEPFQPVKEATQL [K221T],0.0241,,0.0677,0.0629,,0.0638,0.0595,0.0625,,0.104,0.0476,0.0625,0.0587,0.0775,,0.0847,0.0583,0.0672,
MGESLFKGPRDYNPISSSICHLTNESDGHTTSLYGIGFGPFIITNKHLFRRNNGTLVVQSLHGVFKVKDTTTLQQHLVDGRDMIIIRMPKDFPPFPQKLKFREPQREERICLVTTNFQTKSMSSMVSDTSCTFPSGDGIFWKHWIQTKDGQCGSPLVSTRDGFIVGIHSASNFTNTNNYFTSVPKNFMELLTNQEAQQWVSGWRLNADSVLWGGHKVFMVKPFEPFQPVKEATQL [E223F],0.0665,,0.0549,,0.059,0.0678,0.0545,0.0687,,,0.066,,0.0618,,,0.0502,0.0681,0.0675,
MGESLFKGPRDYNPISSSICHLTNESDGHTTSLYGIGFGPFIITNKHLFRRNNGTLVVQSLHGVFKVKDTTTLQQHLVDGRDMIIIRMPKDFPPFPQKLKFREPQREERICLVTTNFQTKSMSSMVSDTSCTFPSGDGIFWKHWIQTKDGQCGSPLVSTRDGFIVGIHSASNFTNTNNYFTSVPKNFMELLTNQEAQQWVSGWRLNADSVLWGGHKVFMVKPEEPYQPVKEATQL [F226Y],0.0736,,0.063,,0.067,,0.061,0.0811,,0.137,0.0685,0.146,0.0543,,0.0537,0.0712,0.0931,,
MGESLFKGPRDYNPISSSICHLTNESDGHTTSLYGIGFGPFIITNKHLFRRNNGTLVVQSLHGVFKVKDTTTLQQHLVDGRDMIIIRMPKDFPPFPQKLKFREPQREERICLVTTNFQTKSMSSMVSDTSCTFPSGDGIFWKHWIQTKDGQCGSPLVSTRDGFIVGIHSASNFTNTNNYFTSVPKNFMELLTNQEAQQWVSGWRLNADSVLWGGHKVFMVKPEEPFQPVKMATQL [E231M],0.0498,,0.0636,,0.0609,0.0894,0.0792,0.0737,,0.119,0.0708,0.0996,0.0435,,0.066,,0.0835,,
MGESLFKGPRDYNPISSSICHLTNESDGHTTSLYGIGFGPFIITNKHLFRRNNGTLVVQSLHGVFKVKDTTTLQQHLVDGRDMIIIRMPKDFPPFPQKLKFREPQREERICLVTTNFQTKSMSSMVSDTSCTFPSGDGIFWKHWIQTKDGQCGSPLVSTRDGFIVGIHSASNFTNTNNYFTSVPKNFMELLTNQEAQQWVSGWRLNADSVLWGGHKVFMVKPEEPFQNVKEATQL [P228N],0.0732,,0.0627,0.0717,0.0918,,,0.0704,0.0773,0.108,0.0556,0.109,,0.0769,,0.08,0.1,0.0635,0.083
MGESLFKGPRDYNPISSSICHLTNESDGHTTSLYGIGFGPFIITNKHLFRRNNGTLVVQSLHGVFKVKDTTTLQQHLVDGRDMIIIRMPKDFPPFPQKLKFREPQREERICLVTTNFQTKSMSSMVSDTSCTFPSGDGIFWKHWIQTKDGQCGSPLVSTRDGFIVGIHSASNFTNTNNYFTSVPKNFMELLTNQEAQQWVSGWRLNADSVLWGGHKNFMVKPEEPFQPVKEATQL [V217N],0.0453,0.0699,,0.0538,0.0589,0.0504,0.0807,0.0545,0.0511,0.05,0.0568,0.0639,0.0664,0.0714,0.0648,0.058,,0.0603,0.0593
MGESLFKGPRDYNPISSSICHLTNESDGHTTSLYGIGFGPFIITNKHLFRRNNGTLVVQSLHGVFKVKDTTTLQQHLVDGRDMIIIRMPKDFPPFPQKLKFREPQREERICLVTTNFQTKSMSSMVSDTSCTFPSGDGIFWKHWIQTKDGQCGSPLVSTRDGFIVGIHSASNFTNTNNYFTSVPKNFMELLTNQEAQQWVSGWRLNADSVLWGGHKVFRVKPEEPFQPVKEATQL [M219R],0.061,0.0622,0.067,0.0548,0.0531,0.073,0.0623,0.0625,,0.0502,0.047,0.0543,0.0615,0.0619,0.0443,0.0541,0.0654,0.0419,0.0621
MGESLFKGPRDYNPISSSICHLTNESDGHTTSLYGIGFGPFIITNKHLFRRNNGTLVVQSLHGVFKVKDTTTLQQHLVDGRDMIIIRMPKDFPPFPQKLKFREPQREERICLVTTNFQTKSMSSMVSDTSCTFPSGDGIFWKHWIQTKDGQCGSPLVSTRDGFIVGIHSASNFTNTNNYFTSVPKNFMELLTNQEAQQWVSGWRLNADSVLWGGHKVFQVKPEEPFQPVKEATQL [M219Q],0.0555,,0.0716,0.0814,0.066,0.0887,0.0673,0.0544,0.0698,0.0811,0.0627,,0.0668,0.0748,0.0634,0.0361,0.0716,0.0716,
MGESLFKGPRDYNPISSSICHLTNESDGHTTSLYGIGFGPFIITNKHLFRRNNGTLVVQSLHGVFKVKDTTTLQQHLVDGRDMIIIRMPKDFPPFPQKLKFREPQREERICLVTTNFQTKSMSSMVSDTSCTFPSGDGIFWKHWIQTKDGQCGSPLVSTRDGFIVGIHSASNFTNTNNYFTSVPKNFMELLTNQEAQQWVSGWRLNADSVLWGGHKVFDVKPEEPFQPVKEATQL [M219D],0.0668,,0.0597,0.0633,0.0657,0.0742,0.0725,0.0464,0.0676,0.053,0.061,0.0659,0.0464,,0.0744,0.0604,0.0843,0.0665,
MGESLFKGPRDYNPISSSICHLTNESDGHTTSLYGIGFGPFIITNKHLFRRNNGTLVVQSLHGVFKVKDTTTLQQHLVDGRDMIIIRMPKDFPPFPQKLKFREPQREERICLVTTNFQTKSMSSMVSDTSCTFPSGDGIFWKHWIQTKDGQCGSPLVSTRDGFIVGIHSASNFTNTNNYFTSVPKNFMELLTNQEAQQWVSGWRLNADSVLWGGHKVFMVKPETPFQPVKEATQL [E224T],0.0684,,,0.0592,,,0.0743,0.0653,,0.106,0.0642,,0.075,,,,,,
MGESLFKGPRDYNPISSSICHLTNESDGHTTSLYGIGFGPFIITNKHLFRRNNGTLVVQSLHGVFKVKDTTTLQQHLVDGRDMIIIRMPKDFPPFPQKLKFREPQREERICLVTTNFQTKSMSSMVSDTSCTFPSGDGIFWKHWIQTKDGQCGSPLVSTRDGFIVGIHSASNFTNTNNYFTSVPKNFMELLTNQEAQQWVSGWRLNADSVLWGGHKVFMVKPEMPFQPVKEATQL [E224M],0.0713,0.0786,0.0614,,0.0596,0.0764,0.0542,0.0613,0.0726,0.125,0.0665,0.106,0.0748,0.0539,0.0569,,0.0685,,
MGESLFKGPRDYNPISSSICHLTNESDGHTTSLYGIGFGPFIITNKHLFRRNNGTLVVQSLHGVFKVKDTTTLQQHLVDGRDMIIIRMPKDFPPFPQKLKFREPQREERICLVTTNFQTKSMSSMVSDTSCTFPSGDGIFWKHWIQTKDGQCGSPLVSTRDGFIVGIHSASNFTNTNNYFTSVPKNFMELLTNQEAQQWVSGWRLNADSVLWGGHKVFMVKPEPPFQPVKEATQL [E224P],0.0822,,0.0812,0.0653,0.0839,,0.0654,0.0782,0.0735,0.105,0.0498,0.123,0.0512,0.0548,0.059,0.071,0.0542,,
MGESLFKGPRDYNPISSSICHLTNESDGHTTSLYGIGFGPFIITNKHLFRRNNGTLVVQSLHGVFKVKDTTTLQQHLVDGRDMIIIRMPKDFPPFPQKLKFREPQREERICLVTTNFQTKSMSSMVSDTSCTFPSGDGIFWKHWIQTKDGQCGSPLVSTRDGFIVGIHSASNFTNTNNYFTSVPKNFMELLTNQEAQQWVSGWRLNADSVLWGGHKVFMVKPEETFQPVKEATQL [P225T],0.0951,0.0903,0.0729,0.0766,0.0584,,0.0649,0.0765,,0.107,0.0659,,0.0394,0.057,0.0638,0.0746,0.0704,0.0363,
MGESLFKGPRDYNPISSSICHLTNESDGHTTSLYGIGFGPFIITNKHLFRRNNGTLVVQSLHGVFKVKDTTTLQQHLVDGRDMIIIRMPKDFPPFPQKLKFREPQREERICLVTTNFQTKSMSSMVSDTSCTFPSGDGIFWKHWIQTKDGQCGSPLVSTRDGFIVGIHSASNFTNTNNYFTSVPKNFMELLTNQEAQQWVSGWRLNADSVLWGGHKVFMVKPEEPFQPVKEPTQL [A232P],0.0739,,0.0606,,0.0692,,0.0763,0.116,0.0953,0.133,0.0485,,,,0.0807,0.0631,0.0952,,
MGESLFKGPRDYNPISSSICHLTNESDGHTTSLYGIGFGPFIITNKHLFRRNNGTLVVQSLHGVFKVKDTTTLQQHLVDGRDMIIIRMPKDFPPFPQKLKFREPQREERICLVTTNFQTKSMSSMVSDTSCTFPSGDGIFWKHWIQTKDGQCGSPLVSTRDGFIVGIHSASNFTNTNNYFTSVPKNFMELLTNQEAQQWVSGWRLNADSVLWGGHKVGMVKPEEPFQPVKEATQL [F218G],0.0663,0.0608,0.0639,,0.061,,0.0535,,0.0617,0.0818,0.0659,0.0653,,,0.0639,0.0581,,,0.0538
MGESLFKGPRDYNPISSSICHLTNESDGHTTSLYGIGFGPFIITNKHLFRRNNGTLVVQSLHGVFKVKDTTTLQQHLVDGRDMIIIRMPKDFPPFPQKLKFREPQREERICLVTTNFQTKSMSSMVSDTSCTFPSGDGIFWKHWIQTKDGQCGSPLVSTRDGFIVGIHSASNFTNTNNYFTSVPKNFMELLTNQEAQQWVSGWRLNADSVLWGGHKVSMVKPEEPFQPVKEATQL [F218S],0.0958,,0.0617,0.065,0.07,,0.0576,0.0644,,,,0.0906,0.0369,0.0686,0.0546,0.0673,0.0665,0.0692,0.0773
